Results taken from publication PMC11336960.
These are yes or no findings as the source states them, for the method shown. Binding seen in cells or lysates may run through a third protein. Some binding calls cover weakened binding; strength is not graded here. For some assays here: Sequences can lack the tags named with a protein.

Chains of the proteins cited; added tags and fusions are not shown. Residues count along the entry.
UniProt O00206, residues 24-839: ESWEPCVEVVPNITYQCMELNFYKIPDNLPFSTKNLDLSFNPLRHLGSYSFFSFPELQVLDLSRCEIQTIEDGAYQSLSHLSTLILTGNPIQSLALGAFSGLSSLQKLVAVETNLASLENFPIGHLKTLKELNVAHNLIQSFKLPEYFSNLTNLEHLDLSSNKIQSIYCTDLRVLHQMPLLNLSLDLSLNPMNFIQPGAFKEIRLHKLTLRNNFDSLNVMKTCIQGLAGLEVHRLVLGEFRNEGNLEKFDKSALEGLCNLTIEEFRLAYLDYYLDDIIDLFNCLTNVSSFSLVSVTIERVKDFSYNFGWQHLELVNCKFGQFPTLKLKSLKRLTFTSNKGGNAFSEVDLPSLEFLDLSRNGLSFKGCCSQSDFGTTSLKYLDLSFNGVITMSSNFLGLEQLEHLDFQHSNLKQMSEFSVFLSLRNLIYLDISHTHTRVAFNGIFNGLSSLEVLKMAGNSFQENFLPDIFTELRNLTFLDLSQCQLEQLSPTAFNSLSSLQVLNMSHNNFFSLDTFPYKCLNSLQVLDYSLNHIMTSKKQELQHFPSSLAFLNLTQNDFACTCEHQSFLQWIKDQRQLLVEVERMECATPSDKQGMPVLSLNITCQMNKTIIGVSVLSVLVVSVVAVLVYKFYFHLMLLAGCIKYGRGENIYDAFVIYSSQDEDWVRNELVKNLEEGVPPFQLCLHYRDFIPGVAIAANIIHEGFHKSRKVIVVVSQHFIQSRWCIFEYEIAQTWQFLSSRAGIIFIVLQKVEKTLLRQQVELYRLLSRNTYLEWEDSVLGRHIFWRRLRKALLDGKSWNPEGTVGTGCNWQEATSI
UniProt P07355: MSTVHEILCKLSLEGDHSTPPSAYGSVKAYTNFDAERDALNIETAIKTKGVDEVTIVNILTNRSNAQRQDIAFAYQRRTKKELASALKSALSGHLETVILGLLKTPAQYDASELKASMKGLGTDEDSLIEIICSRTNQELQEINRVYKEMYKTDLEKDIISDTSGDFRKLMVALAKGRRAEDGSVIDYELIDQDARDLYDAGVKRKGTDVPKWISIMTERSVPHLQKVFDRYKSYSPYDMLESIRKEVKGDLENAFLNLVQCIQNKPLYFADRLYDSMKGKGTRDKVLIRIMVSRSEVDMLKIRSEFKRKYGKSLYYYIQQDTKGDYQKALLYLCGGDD

Tests used:
[1] = biological target: TLR4 (Toll-like receptor 4) (UniProt O00206); experiment: co-IP; co-IP of TLR4 and ANXA2 (Figure S9A); cells and constructs not shown
[2] = biological target: T1, Flag-tagged NINJ1 (nerve injury-induced protein 1), wild type, full length (UniProt Q92982); experiment: co-IP; HEK293T cells co-transfected with Flag-tagged NINJ1 (full length or truncation) and HA-tagged ANXA2; precipitated by anti-Flag affinity gel, Western blotting for ANXA2 and HA
T1 sequence: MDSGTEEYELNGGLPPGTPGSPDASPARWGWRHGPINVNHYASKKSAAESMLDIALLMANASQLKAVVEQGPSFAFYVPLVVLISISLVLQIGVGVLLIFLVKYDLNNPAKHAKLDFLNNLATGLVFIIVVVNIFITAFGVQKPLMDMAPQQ

[3] = biological target: T2, NINJ1-C (79th-152th amino acids, lacking N-termini), Flag-tagged (UniProt Q92982); experiment: as above
T2 sequence: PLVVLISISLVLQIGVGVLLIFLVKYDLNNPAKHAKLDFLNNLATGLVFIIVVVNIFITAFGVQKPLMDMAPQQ

[4] = biological target: T3, NINJ1-N (1st-137th amino acids, lacking C-termini), Flag-tagged (UniProt Q92982); experiment: as above
T3 sequence: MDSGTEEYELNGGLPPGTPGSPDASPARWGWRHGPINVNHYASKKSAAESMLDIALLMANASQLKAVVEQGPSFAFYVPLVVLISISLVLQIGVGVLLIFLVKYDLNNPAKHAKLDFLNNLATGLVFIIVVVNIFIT

[5] = biological target: TLR4 (Toll-like receptor 4) (UniProt O00206); experiment: co-IP; HEK293T cells co-expressing ANXA2 and TLR4 with or without NINJ1; ANXA2 or TLR4 immunoprecipitated from cell lysates, Western blotting

“HA-tagged ANXA2 (Annexin A2) (from UniProt P07355 1-339)” was tested, and the binding [1] was “binds”, the binding [2] was “binds” and the binding [3] was “binds”. For the same substance, the binding [4] was “no binding” and the binding [5] was “binds”.
